# The list shows a part of the results.
# B1: Gz-CVNH (Gibberella zeae) (protein)
# chain: MGSSHHHHHHSSGLVPRGSHMGNFHESSNNIWLEDGHILHAECGNGEGDYVESTLDLDYYIGNDDGSFSWGGENFSGSASNITLDIEGDDNIPVLRAELNPMDGDPVEANVNLSERIGNDCGTLIFLA
# How the values were obtained:
# Assay in all cases: glycan array binding signal (z-score within array); higher = stronger binding
# Details in all cases: glycan notation: IUPAC condensed, linker removed
# [1] = target: Gal(b1-3)GlcNAc(a1-6)Gal(b1-4)GlcNAc
# Method in brief: (§1)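 Columns mapping to the same glycan were averaged after glycan names were converted to IUPAC-condensed notation. The data come from 3228 arrays in the Consortium for Functional Glycomics database, limited to those with an available protein sequence. Binding is reported as a within-array Z-score averaged across arrays of one protein sequence and across linkers.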
# [2] = target: Gal(b1-3)GlcNAc(b1-2)Man(a1-3)[Gal(b1-3)GlcNAc(b1-2)Man(a1-6)]Man(b1-4)GlcNAc(b1-4)GlcNAc
# Method in brief: as §1
# [3] = target: Gal(b1-3)GlcNAc(b1-2)Man(a1-3)[Gal(b1-3)GlcNAc(b1-2)Man(a1-6)]Man(b1-4)GlcNAc(b1-4)[Fuc(a1-6)]GlcNAc
# Method in brief: as §1
# [4] = target: Gal(b1-3)GlcNAc(b1-2)[Gal(b1-3)GlcNAc(b1-6)]Man(a1-6)[Gal(b1-3)GlcNAc(b1-2)Man(a1-3)]Man(b1-4)GlcNAc(b1-4)GlcNAc
# Method in brief: as §1
# [5] = target: Gal(b1-3)GlcNAc(b1-3)Gal(b1-3)GlcNAc
# Method in brief: as §1
# [6] = target: Gal(b1-3)GlcNAc(b1-3)Gal(b1-4)Glc
# Method in brief: as §1
# [7] = target: Gal(b1-3)GlcNAc(b1-3)Gal(b1-4)GlcNAc
# Method in brief: as §1
# [8] = target: Gal(b1-3)GlcNAc(b1-3)Gal(b1-4)GlcNAc(b1-6)[Gal(b1-3)GlcNAc(b1-3)]Gal(b1-4)Glc
# Method in brief: as §1
# [9] = target: Gal(b1-3)GlcNAc(b1-3)Gal(b1-4)[Fuc(a1-3)]GlcNAc(b1-6)[Gal(b1-3)GlcNAc(b1-3)]Gal(b1-4)Glc
# Method in brief: as §1
# [10] = target: Gal(b1-3)GlcNAc(b1-3)GalNAc
# Method in brief: as §1
# [11] = target: Gal(b1-3)GlcNAc(b1-6)Gal(b1-4)GlcNAc
# Method in brief: as §1
# [12] = target: Gal(b1-3)[Fuc(a1-4)]GlcNAc
# Method in brief: as §1
# [13] = target: Gal(b1-3)[Fuc(a1-4)]GlcNAc(b1-2)Man(a1-3)[Gal(b1-3)[Fuc(a1-4)]GlcNAc(b1-2)Man(a1-6)]Man(b1-4)GlcNAc(b1-4)GlcNAc
# Method in brief: as §1
# [14] = target: Gal(b1-3)[Fuc(a1-4)]GlcNAc(b1-2)Man(a1-3)[Gal(b1-3)[Fuc(a1-4)]GlcNAc(b1-2)Man(a1-6)]Man(b1-4)GlcNAc(b1-4)[Fuc(a1-6)]GlcNAc
# Method in brief: as §1
# [15] = target: Gal(b1-3)[Fuc(a1-4)]GlcNAc(b1-3)Gal(b1-3)[Fuc(a1-4)]GlcNAc
# Method in brief: as §1
# [16] = target: Gal(b1-3)[Fuc(a1-4)]GlcNAc(b1-3)Gal(b1-4)GlcNAc
# Method in brief: as §1
# [17] = target: Gal(b1-3)[Fuc(a1-4)]GlcNAc(b1-3)Gal(b1-4)[Fuc(a1-3)]GlcNAc
# Method in brief: as §1
# [18] = target: Gal(b1-3)[GlcNAc(b1-6)]GalNAc
# Method in brief: as §1
# [19] = target: Gal(b1-3)[Neu5Ac(a2-6)]GalNAc
# Method in brief: as §1
# [20] = target: Gal(b1-3)[Neu5Ac(a2-6)]GlcNAc(b1-6)Gal(b1-4)Glc
# Method in brief: as §1
# [21] = target: Gal(b1-3)[Neu5Ac(b2-6)]GalNAc
# Method in brief: as §1
# Gal(b1-4)Gal = target: Gal(b1-4)Gal
# Method in brief: as §1
# [22] = target: Gal(b1-4)GalNAc(a1-3)[Fuc(a1-2)]Gal(b1-4)GlcNAc
# Method in brief: as §1
# [23] = target: Gal(b1-4)GalNAc(b1-3)[Fuc(a1-2)]Gal(b1-4)GlcNAc
# Method in brief: as §1
# Gal(b1-4)Glc = target: Gal(b1-4)Glc
# Method in brief: as §1
# Gal(b1-4)Glc6S = target: Gal(b1-4)Glc6S
# Method in brief: as §1
# Gal(b1-4)GlcNAc = target: Gal(b1-4)GlcNAc
# Method in brief: as §1
# [24] = target: Gal(b1-4)GlcNAc(a1-6)Gal(b1-4)GlcNAc
# Method in brief: as §1
# Gal(b1-4)GlcNAc(b1-2)Man = target: Gal(b1-4)GlcNAc(b1-2)Man
# Method in brief: as §1
# [25] = target: Gal(b1-4)GlcNAc(b1-2)Man(a1-3)Man(b1-4)GlcNAc(b1-4)GlcNAc
# Method in brief: as §1
# [26] = target: Gal(b1-4)GlcNAc(b1-2)Man(a1-3)[Gal(b1-4)GlcNAc(b1-2)Man(a1-6)]Man(b1-4)GlcNAc(b1-4)GlcNAc
# Method in brief: as §1
# [27] = target: Gal(b1-4)GlcNAc(b1-2)Man(a1-3)[Gal(b1-4)GlcNAc(b1-2)Man(a1-6)]Man(b1-4)GlcNAc(b1-4)[Fuc(a1-6)]GlcNAc
# Method in brief: as §1
# [28] = target: Gal(b1-4)GlcNAc(b1-2)Man(a1-3)[Gal(b1-4)GlcNAc(b1-2)][GlcNAc(b1-4)]Man(b1-4)GlcNAc(b1-4)GlcNAc
# Method in brief: as §1
# [29] = target: Gal(b1-4)GlcNAc(b1-2)Man(a1-3)[GlcNAc(b1-2)Man(a1-6)]Man(b1-4)GlcNAc(b1-4)GlcNAc
# Method in brief: as §1
# [30] = target: Gal(b1-4)GlcNAc(b1-2)Man(a1-3)[Man(a1-6)]Man(b1-4)GlcNAc(b1-4)GlcNAc
# Method in brief: as §1
# [31] = target: Gal(b1-4)GlcNAc(b1-2)Man(a1-6)Man(b1-4)GlcNAc(b1-4)GlcNAc
# Method in brief: as §1
# [32] = target: Gal(b1-4)GlcNAc(b1-2)Man(a1-6)[GlcNAc(b1-2)Man(a1-3)]Man(b1-4)GlcNAc(b1-4)GlcNAc
# Method in brief: as §1
# [33] = target: Gal(b1-4)GlcNAc(b1-2)Man(a1-6)[Man(a1-3)]Man(b1-4)GlcNAc(b1-4)GlcNAc
# Method in brief: as §1
# [34] = target: Gal(b1-4)GlcNAc(b1-2)[Gal(b1-4)GlcNAc(b1-4)]Man(a1-3)[Gal(b1-4)GlcNAc(b1-2)Man(a1-6)]Man(b1-4)GlcNAc(b1-4)GlcNAc
# Method in brief: as §1
# [35] = target: Gal(b1-4)GlcNAc(b1-2)[Gal(b1-4)GlcNAc(b1-4)]Man(a1-3)[Gal(b1-4)GlcNAc(b1-2)[Gal(b1-4)GlcNAc(b1-6)]Man(a1-6)]Man(b1-4)GlcNAc(b1-4)GlcNAc
# Method in brief: as §1
# [36] = target: Gal(b1-4)GlcNAc(b1-2)[Gal(b1-4)GlcNAc(b1-4)]Man(a1-3)[GlcNAc(b1-4)][Gal(b1-4)GlcNAc(b1-2)Man(a1-6)]Man(b1-4)GlcNAc(b1-4)GlcNAc
# Method in brief: as §1
# [37] = target: Gal(b1-4)GlcNAc(b1-2)[Gal(b1-4)GlcNAc(b1-4)]Man(a1-3)[GlcNAc(b1-4)][Gal(b1-4)GlcNAc(b1-2)[Gal(b1-4)GlcNAc(b1-6)]Man(a1-6)]Man(b1-4)GlcNAc(b1-4)GlcNAc
# Method in brief: as §1
# [38] = target: Gal(b1-4)GlcNAc(b1-2)[Gal(b1-4)GlcNAc(b1-6)]Man(a1-6)[Gal(b1-4)GlcNAc(b1-2)Man(a1-3)]Man(b1-4)GlcNAc(b1-4)GlcNAc
# Method in brief: as §1
# [39] = target: Gal(b1-4)GlcNAc(b1-2)[Gal(b1-4)GlcNAc(b1-6)]Man(a1-6)[GlcNAc(b1-4)][Gal(b1-4)GlcNAc(b1-2)Man(a1-3)]Man(b1-4)GlcNAc(b1-4)GlcNAc
# Method in brief: as §1
# [40] = target: Gal(b1-4)GlcNAc(b1-3)Gal(b1-3)GlcNAc
# Method in brief: as §1
binder,measurement,setting,value
B1,glycan array binding signal (z-score),[1],-0.113
same,glycan array binding signal (z-score),[2],-0.068
same,glycan array binding signal (z-score),[3],-0.138
same,glycan array binding signal (z-score),[4],-0.096
same,glycan array binding signal (z-score),[5],-0.143
same,glycan array binding signal (z-score),[6],-0.156
same,glycan array binding signal (z-score),[7],-0.089
same,glycan array binding signal (z-score),[8],-0.103
same,glycan array binding signal (z-score),[9],-0.092
same,glycan array binding signal (z-score),[10],-0.13
same,glycan array binding signal (z-score),[11],-0.143
same,glycan array binding signal (z-score),[12],-0.15
same,glycan array binding signal (z-score),[13],-0.143
same,glycan array binding signal (z-score),[14],-0.083
same,glycan array binding signal (z-score),[15],-0.126
same,glycan array binding signal (z-score),[16],-0.128
same,glycan array binding signal (z-score),[17],-0.106
same,glycan array binding signal (z-score),[18],-0.118
same,glycan array binding signal (z-score),[19],-0.15
same,glycan array binding signal (z-score),[20],-0.1
same,glycan array binding signal (z-score),[21],-0.129
same,glycan array binding signal (z-score),Gal(b1-4)Gal,-0.151
same,glycan array binding signal (z-score),[22],-0.151
same,glycan array binding signal (z-score),[23],-0.137
same,glycan array binding signal (z-score),Gal(b1-4)Glc,-0.136
same,glycan array binding signal (z-score),Gal(b1-4)Glc6S,-0.142
same,glycan array binding signal (z-score),Gal(b1-4)GlcNAc,-0.141
same,glycan array binding signal (z-score),[24],-0.121
same,glycan array binding signal (z-score),Gal(b1-4)GlcNAc(b1-2)Man,-0.149
same,glycan array binding signal (z-score),[25],-0.132
same,glycan array binding signal (z-score),[26],-0.123
same,glycan array binding signal (z-score),[27],-0.105
same,glycan array binding signal (z-score),[28],-0.113
same,glycan array binding signal (z-score),[29],-0.125
same,glycan array binding signal (z-score),[30],-0.144
same,glycan array binding signal (z-score),[31],-0.144
same,glycan array binding signal (z-score),[32],-0.135
same,glycan array binding signal (z-score),[33],-0.124
same,glycan array binding signal (z-score),[34],-0.108
same,glycan array binding signal (z-score),[35],-0.081
same,glycan array binding signal (z-score),[36],-0.121
same,glycan array binding signal (z-score),[37],-0.135
same,glycan array binding signal (z-score),[38],-0.094
same,glycan array binding signal (z-score),[39],-0.124
same,glycan array binding signal (z-score),[40],-0.135

# Reference: the supplement of paper PMC8728848
